Drawing on article PMC10726135, this text covers binding signal (log2 normalized intensity) for 73 sequences.

The other results are listed elsewhere or left out. At the low end of the ranking, values are background and their order means little. Measured with an extract: partners may take part in the binding.

The target of the experiment is T1, HNF4alpha2 (COS-7 nuclear extract) (UniProt P41235).
T1 sequence: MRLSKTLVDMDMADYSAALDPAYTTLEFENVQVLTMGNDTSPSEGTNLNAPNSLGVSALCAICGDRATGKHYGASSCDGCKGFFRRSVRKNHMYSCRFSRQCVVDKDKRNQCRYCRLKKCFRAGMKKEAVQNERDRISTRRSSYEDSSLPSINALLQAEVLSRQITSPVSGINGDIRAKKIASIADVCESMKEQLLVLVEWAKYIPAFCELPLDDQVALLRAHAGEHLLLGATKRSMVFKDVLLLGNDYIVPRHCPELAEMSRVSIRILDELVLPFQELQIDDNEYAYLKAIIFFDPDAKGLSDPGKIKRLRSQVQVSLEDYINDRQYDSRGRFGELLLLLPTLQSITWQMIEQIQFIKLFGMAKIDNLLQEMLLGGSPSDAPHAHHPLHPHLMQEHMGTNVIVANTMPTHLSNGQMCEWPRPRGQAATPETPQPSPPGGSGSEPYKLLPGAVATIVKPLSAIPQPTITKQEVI
Description: protein-binding microarray. As to conditions: COS-7 nuclear extract on double-stranded Agilent 4x180k PBM; binding buffer, salt, pH and temperature not given; high values mean tight binding; double strand, one strand shown; sequences stand for … in …GCCTAGGGAGATTAGAGTATCGGTCGA
Turning to GTATCTGACTTTATCATTGGACTCTCTCAT, the binding signal (log2 normalized intensity) is 3.01.

AGCCAGGCAGTCGGGAAATTCCAGCAGGAA: the binding signal (log2 normalized intensity) was -1.23.

On to ACTGACTGCTTTATCAGTGTAGTTTGAAGC, for which the binding signal (log2 normalized intensity) is 1.58.

AGGTTCCATGGTGTAATGGTTAGCACTCTG: the binding signal (log2 normalized intensity) is 0.735.

Consider ATGTATGCATAGACTGCCCAGAATTTCCTG, for which the binding signal (log2 normalized intensity) is -1.05.

On to GGTCTAAGGGCAAGTGACTGATAAGGCTAA, for which the binding signal (log2 normalized intensity) is -1.06.

As to ATAACCTACTTAAAAAGAAATAGCCTGAAA, the binding signal (log2 normalized intensity) was -1.07.

For CAATATCGCAGTCATAAATACTCATTATGT, the binding signal (log2 normalized intensity) is 0.167.

Take TCTGTTGTGTCAAAGGTCACTTAGTCCCTA: the binding signal (log2 normalized intensity) is 4.39.

On to TACGCAAGTGGTACCTCCCGAAAGTGACCC, for which the binding signal (log2 normalized intensity) is 4.42.

As to GAATTAACTAAAAGTATCTAAGGGCCTAGA, the binding signal (log2 normalized intensity) was -1.1.

Turning to CTCAAGCTCTCCTCTTATCAGGCAGGATAT, the binding signal (log2 normalized intensity) is 0.862.

For the sequence ATGGTGCTGGCGGGAGCATAGCAGCGAGGA, the binding signal (log2 normalized intensity) is -1.07.

As to CCTAGGGGGAAGCCCCTGCTTCCGGACACA, the binding signal (log2 normalized intensity) was -1.12.

Turning to TGGGGTATGTGCTCACTCCTGGGACAAGGA, the binding signal (log2 normalized intensity) was -1.11.

Consider GGGCTTCCAGGCTTGGAGCCCCTTTGGAGG, for which the binding signal (log2 normalized intensity) is -1.

As for AGCAATAGGAAATGGGAGGGTAAATTCCTT, the binding signal (log2 normalized intensity) was -0.838.

GCTTGAAAAGTCTTTCTGCCAAAGTTCAGC: the binding signal (log2 normalized intensity) was found to be 2.04.

GAGCCTGCACGCCTGTTCACATTCCAGTGT: the binding signal (log2 normalized intensity) is -0.595.

As for GAAACGGGATTTCTTTATATTATGCTAGAC, the binding signal (log2 normalized intensity) is 0.0814.

TCGCAGACTTTGGACTCTGCAAGGAAGGTG: the binding signal (log2 normalized intensity) worked out at 4.93.

Turning to GAGGTTTTCATCCCAGGGCTGGGGAAACAA, the binding signal (log2 normalized intensity) was -0.87.

AAAGGGTCTTAGTATTAACGGTGAGGGAGG: the binding signal (log2 normalized intensity) is -0.973.

For the sequence GGTCTGCAATCTAAGTCTGGCTCCTGAAAC, the binding signal (log2 normalized intensity) was -1.25.

For the sequence ACACTCCTTGTTCTCAGAGATCAAAGGTGA, the binding signal (log2 normalized intensity) was determined as 4.36.

Consider ACCACATTCTCACCACTAGGAAACTGACCT, for which the binding signal (log2 normalized intensity) came out at 3.23.

Consider TCATGTCACGTTGGGGGTGCTGATGTTAAC, for which the binding signal (log2 normalized intensity) was determined as 1.49.

For the sequence GCATGGAATGACTTTGGGGAAATGACCTTT, the binding signal (log2 normalized intensity) stood at 7.23.

As for CTCTGCCACTGGTTTGCACACACCAAAGCC, the binding signal (log2 normalized intensity) is -1.02.

As for CTTTCTCCTCCCCTCCCCTCCCCCCACTCA, the binding signal (log2 normalized intensity) amounted to 6.94.

As for ACTGACCTTTGAGAGTCAACACTGAAATAG, the binding signal (log2 normalized intensity) was determined as 1.42.

Regarding GGGATTTGTACAAGTGATTGGATCTGAGAT, the binding signal (log2 normalized intensity) worked out at 0.237.

In the case of AGCCTTGCAGATAAGCCACGAGCCTGCCTG, the binding signal (log2 normalized intensity) is -1.02.

For the sequence CTTATGCTGAATTCCCATCTAAGACTTTAT, the binding signal (log2 normalized intensity) is -0.47.

On to GCCTCCTCCATCTCCTCCACCAGCTTGCTG, for which the binding signal (log2 normalized intensity) was -1.09.

For GACCCATCCCTCAGGGTCCATATCCAATAA, the binding signal (log2 normalized intensity) is 2.04.

In the case of AGGCTTAGGCCAGGCGGAGCACACCAGGCC, the binding signal (log2 normalized intensity) is -1.23.

Turning to GGGGCCTAGCTTGTAAAGGGTAATCTGCTT, the binding signal (log2 normalized intensity) was -1.02.

For AGCAAACACAAACTATGACCTTTGAAACTT, the binding signal (log2 normalized intensity) was found to be 7.13.

Take CTCAGCTCCTAAAGGCAGCCCCTTATCAGG: the binding signal (log2 normalized intensity) was -1.15.

As to ATCTTGCTGTACACTCAGGTCTTTCTGGAG, the binding signal (log2 normalized intensity) is 1.44.

In the case of ATTCTTTCTGATAAGAGCATTTTTGTATGC, the binding signal (log2 normalized intensity) amounted to 1.5.

Consider CTCCGCCTCCCTCCCCCTTTCTCCGCTAAG, for which the binding signal (log2 normalized intensity) was 3.25.

As for TAACATTGCTGACCCCCTACATAGAGAGCA, the binding signal (log2 normalized intensity) stood at 2.89.

As to ACAAGTGAAAGTCTAAAGTTCAGTGAGATT, the binding signal (log2 normalized intensity) worked out at 3.35.

On to CTTAGAAAGAGGGTGTAAGAGTGAACTCTG, for which the binding signal (log2 normalized intensity) was determined as 2.12.

As to ACTTCTTTGAAGAAGACAAAACAGCGTACT, the binding signal (log2 normalized intensity) is -0.893.

With AGAGCTCTGTGCCTTTCTCTGCAGCTTAAA, the binding signal (log2 normalized intensity) is -1.14.

GTGACTGAAGTCCAACCCTCCGTTTCTCTG: the binding signal (log2 normalized intensity) worked out at 1.42.

On to TTGAGTCTGGTGTTCTCTTGGCCAACAACT, for which the binding signal (log2 normalized intensity) is -0.0451.

As for AAGTTCAACCTCATTATCTTCAGTCTAGAA, the binding signal (log2 normalized intensity) is 0.403.

As for AGTAGATAACTTCAAGGAGCTCGGCGCCAG, the binding signal (log2 normalized intensity) was -1.01.

Consider TGTCTACCCTTTTGCCCTTTGAGCTTCTGT, for which the binding signal (log2 normalized intensity) stood at 5.21.

With ACCCCTTGCAAATAAGTCCGGCAGAGCTAT, the binding signal (log2 normalized intensity) is -0.0464.

AGTCCAAATTCCTAACTATGGTTGATAAGG: the binding signal (log2 normalized intensity) was 0.0407.

With ATTTCTAGGTTTGATCTTTGCCCTACAATT, the binding signal (log2 normalized intensity) was found to be 5.51.

On to ATCTCGTGTCTTTCATCTCTGTAAACTGGC, for which the binding signal (log2 normalized intensity) worked out at 1.84.

For the sequence ACTCAGGTCATCAGGACTCTAACTGGCTTT, the binding signal (log2 normalized intensity) was -0.721.

As to GACCTCTGCCCTTCCACCCACTTTATCTTC, the binding signal (log2 normalized intensity) was 3.26.

On to TCCTTTGTTTAGACTTGGGGCCAAAAAATT, for which the binding signal (log2 normalized intensity) amounted to 1.62.

Take CCAAGACCAAGCAAGCCAGTCAGAATCTCT: the binding signal (log2 normalized intensity) was -1.08.

GTGAACCTTTGTCCCGTTATGGCACCAAGA: the binding signal (log2 normalized intensity) stood at 0.871.

As to TGATGAAACTCCTTCCCTTTCATGTTGAAC, the binding signal (log2 normalized intensity) was determined as 1.69.

Turning to CTCATGTGGTCCTAAGACTGACCTTTGATC, the binding signal (log2 normalized intensity) is 10.1.

As to TAGAAGCTGAGCAGCAATCAGCTCCTCAAC, the binding signal (log2 normalized intensity) is -1.3.

Take AATCCTCCCACCTCAGCATCCCAAGTAGCT: the binding signal (log2 normalized intensity) was determined as 1.58.

Consider TGCTCGGCATCCCTGCCGTGGCTGGAACTC, for which the binding signal (log2 normalized intensity) is -1.08.

With ACCCCTCCGGCAGCGGCCGGAAAAAGTGAG, the binding signal (log2 normalized intensity) was found to be 1.79.

Regarding CCAAGCCACCTTCCCGGCCTGGCCACTCCG, the binding signal (log2 normalized intensity) was -1.12.

As to ATAGTTCTCATGGCTCATTTTGGGCATCTG, the binding signal (log2 normalized intensity) is 1.35.

Consider TTAGCTTGGACAGAGTTTGTGGTGTTTGTG, for which the binding signal (log2 normalized intensity) turned out to be 2.05.

Regarding TATGCACTCTCACCTTGGGGGCTGCTGGGG, the binding signal (log2 normalized intensity) is -0.636.

For TATTGTGAAGTGATAGCTAATGGAAAGCTT, the binding signal (log2 normalized intensity) was -1.08.
